{"source": "PubChem BioAssay AID485281", "about": "(National Center for Advancing Translational Sciences (NCATS), 2010)", "note": "In all, about 350,000 compounds went through this assay and about 260 (0.074%) were called active. Inconclusive means that the source gave no clear call. Such entries were picked first, then a sample of the others. Calls come from the whole dose curve; as a rule, active = well fitted inhibition curve with a large enough effect; inconclusive = small, poorly fitted or top-dose-only effect; inactive = no such curve, though single readings can be large or run the other way. Potencies of inconclusive entries are doubtful fits and often do not repeat. % is set by controls: 0 for no effect and ±100 for the full control effect; potency is the fitted concentration of half-maximal effect; tags give direction and shape of the fitted curve."}
{"target": "Ferritin light chain (Equus caballus) (UniProt P02791)", "sequence (P02791 whole entry, looked up)": "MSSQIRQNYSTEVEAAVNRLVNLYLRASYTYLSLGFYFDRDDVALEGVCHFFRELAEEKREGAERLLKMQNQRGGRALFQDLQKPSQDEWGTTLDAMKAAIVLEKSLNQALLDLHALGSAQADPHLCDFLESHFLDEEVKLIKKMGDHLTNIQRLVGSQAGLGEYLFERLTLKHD", "experiment": "qHTS Assay for Identification of Novel General Anesthetics; note: nearly all actives have a fitted effect of over 20% in size", "conditions": "apoferritin/1-aminoanthracene competitive binding, fluorescence; activity change, negative = displacement: at 77.5 µM (top of the series)", "how_it_was_run": "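Horse-spleen apoferritin (10 uM) was mixed with 50% saturated 1-aminoanthracene in PBS, exposed to compounds for 10 min at room temperature, and read for fluorescence (ex 380 nm, em 535 nm). Competitive displacement was fitted with a four-parameter Hill equation.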"}
{"smiles": "CCCCNS(=O)(=O)c1ccc2nc(SCC(=O)c3ccc(C#N)cc3)[nH]c2c1", "Potency": "inconclusive: 3.16 µM [inhibitor, partial curve]"}
{"smiles": "CCCN1C(C(=O)c2ccccc2)=C(OC(=O)COc2ccc(C)cc2)c2ccccc2S1(=O)=O", "activity change, negative = displacement": "inactive: -2.68%"}
{"smiles": "COc1ccc(-n2c3c(cc(C(=O)NC4CCSC4=O)c2=O)C(=O)CC(C)(C)C3)cc1", "note": "(configuration not stated)", "Potency": "inconclusive: 39.8 µM [inhibitor, single point]"}
{"smiles": "CCN1CCN(C(=O)Cn2ncc3c4ccccc4n(Cc4c(C)cc(C)cc4C)c3c2=O)CC1", "activity change, negative = displacement": "inactive: 0.105%"}
{"smiles": "CCCCN(CCCC)C(=O)c1c[nH]c2ccc(S(=O)(=O)Nc3cccc(Cl)c3C)cc2c1=O", "Potency": "inconclusive: 44.7 µM [inhibitor, partial curve, poor fit]"}
{"smiles": "CCN(c1ccccc1)S(=O)(=O)c1ccc(OC)c(NC(=O)Cn2cnc3c2c(=O)n(C)c(=O)n3C)c1", "Potency": "inconclusive: 25.1 µM [inhibitor, partial curve]"}
{"smiles": "Cc1ccc(/C(N)=N/OC(=O)c2ccc(C)cc2Cl)cc1", "activity change, negative = displacement": "inactive: 2.81%"}
{"smiles": "COc1ccc(NC2=C(Cl)C(=O)N(CCc3ccccc3)C2=O)c(OC)c1", "Potency": "inconclusive: 28.2 µM [inhibitor, partial curve]"}
{"smiles": "O=C(CNc1ccc(F)cc1)N/N=C1\\CCCc2ccccc21", "Potency": "inconclusive: 22.4 µM [inhibitor, partial curve]"}
{"smiles": "CCn1nnc(NC(=O)c2cccc(-c3cc4ccccc4oc3=O)c2)n1", "activity change, negative = displacement": "inactive: -8%"}
{"smiles": "O=C(CSc1ccccc1)NN1C(=O)c2ccccc2C1=O", "Potency": "inconclusive: 35.5 µM [inhibitor, partial curve]"}
{"smiles": "Cc1ccc(CN2CCC(CNC(=O)c3cnn(-c4ccc(C)cc4)c3C3CCN(C(=O)OC(C)(C)C)CC3)CC2)cc1", "Potency": "inconclusive: 2.82 µM [inhibitor, full curve]"}
{"smiles": "C=CCNC(=S)N1CCC(C(=O)c2ccc(Cl)cc2)CC1", "Potency": "inconclusive: 89.1 µM [inhibitor, partial curve, poor fit]"}
{"smiles": "C=C1[C@@H](OC(C)=O)CC[C@]2(C)[C@@H]1C[C@@H]1C[C@H](OC(C)=O)C(C)=C([C@@H](OC(C)=O)[C@@H]2OC(C)=O)C1(C)C", "Potency": "inconclusive: 35.5 µM [inhibitor, single point]"}
{"smiles": "Cc1nn(CCOc2ccccc2)c(=O)n1-c1cccc(F)c1", "activity change, negative = displacement": "inactive: -15%"}
{"smiles": "CCN(CC)S(=O)(=O)c1cccc(-c2nnc(SCC(=O)NC3CCCCCCC3)n2N)c1", "Potency": "inconclusive: 50.1 µM [inhibitor, single point]"}
{"smiles": "COc1cc(/C=C/c2ccc3cccc(OC)c3n2)c(OC(C)=O)c([N+](=O)[O-])c1", "Potency": "inconclusive: 35.5 µM [inhibitor, partial curve]"}
{"smiles": "O=C(CN1C(=O)S/C(=C\\c2ccc(F)cc2)C1=O)Nc1cccc(S(=O)(=O)NCc2ccco2)c1", "Potency": "inconclusive: 3.98 µM [inhibitor, partial curve]"}
{"smiles": "O=[N+]([O-])c1ccc(Nc2ccccc2)nc1", "Potency": "inconclusive: 50.1 µM [inhibitor, single point]"}
{"smiles": "CN(CC(=O)Nc1ccc(F)cc1F)S(=O)(=O)c1cccc2nsnc12", "activity change, negative = displacement": "inactive: -3.22%"}
{"smiles": "CCc1ccc(NC(=O)CSc2nnc(CC)c(CC)n2)cc1", "Potency": "inconclusive: 25.1 µM [inhibitor, partial curve]"}
{"smiles": "CCN(CC)S(=O)(=O)c1cc(-c2ccc(=O)n(C(C)C(=O)Nc3cccc(C#N)c3)n2)ccc1C", "note": "(configuration not stated)", "Potency": "inconclusive: 17.8 µM [inhibitor, partial curve]"}
{"smiles": "Cc1ccc(NC(=O)c2csc3c2CCCC3)cc1", "Potency": "inconclusive: 22.4 µM [inhibitor, partial curve]"}
{"smiles": "CN(C)/C=C1\\N=C(c2cccs2)OC1=O", "Potency": "inconclusive: 50.1 µM [inhibitor, single point]"}
{"smiles": "O=C(CSc1ncccn1)Nc1ccc(S(=O)(=O)N2CCCCC2)cc1", "Potency": "inconclusive: 28.2 µM [inhibitor, partial curve]"}
{"smiles": "CCCCOc1ccc(C(=O)NCc2ccco2)cc1", "Potency": "inconclusive: 20 µM [inhibitor, partial curve]"}
{"smiles": "O=C(NC12CC3CC(CC(C3)C1)C2)c1cccnc1", "Potency": "inconclusive: 35.5 µM [inhibitor, single point]"}
{"smiles": "Cc1ccc(N2N=C(c3ccc(Br)cc3)CCC2=O)cc1", "Potency": "inconclusive: 39.8 µM [inhibitor, single point]"}
{"smiles": "CCN(CC)S(=O)(=O)c1ccc(Cl)c(OC)c1", "Potency": "inconclusive: 17.8 µM [inhibitor, partial curve]"}
{"smiles": "CC1CC(C)CN(CCCNS(=O)(=O)c2cc(Br)cc3c2N(C(=O)C2CC2)CC3)C1", "note": "(configuration not stated)", "activity change, negative = displacement": "inactive: -4.05%"}
{"smiles": "COc1ccc2c(c1)c1c(c(=O)n(-c3cc(Cl)ccc3C)c(=O)n1CC(=O)N1CCCC1)n2C", "activity change, negative = displacement": "inactive: 97.1%"}
{"smiles": "CCOC(=O)c1ccc2ncc(C(=O)OCC)c(NCCCN3CCOCC3)c2c1", "Potency": "inconclusive: 35.5 µM [inhibitor, single point]"}
{"smiles": "CN(CCOc1ccccc1)CC(=O)Nc1ccc(Cl)cc1[N+](=O)[O-]", "Potency": "inconclusive: 25.1 µM [inhibitor, single point]"}
{"smiles": "CCOC(=O)/C(C#N)=C\\c1ccc(CC)s1", "Potency": "inconclusive: 50.1 µM [inhibitor, single point]"}
{"smiles": "Cc1cccc(OCCn2c(=S)[nH]c3ccccc32)c1", "activity change, negative = displacement": "inactive: 3.01%"}
{"smiles": "O=C(Oc1ccc2c(c1)O/C(=C\\c1ccncc1)C2=O)c1ccccc1", "activity change, negative = displacement": "inactive: 93.4%"}
{"smiles": "Oc1ccc(OCc2ccccc2)cc1", "Potency": "inconclusive: 10 µM [inhibitor, partial curve]"}
{"smiles": "CCC(=O)Nc1cccc(C(=O)OCc2cccc([N+](=O)[O-])c2)c1", "Potency": "inconclusive: 31.6 µM [inhibitor, partial curve]"}
{"smiles": "COc1cccc(NC(=O)c2oc3ccccc3c2NC(=O)c2ccccc2C)c1", "activity change, negative = displacement": "inactive: 57.1%"}
{"smiles": "COc1ccc(NC(=O)CSc2nnc(C3CCCCC3)n2-c2ccccc2)cc1", "Potency": "inconclusive: 35.5 µM [inhibitor, partial curve]"}
{"smiles": "CCCOc1ccc2c3c(c(=O)oc2c1OCCC)CCC3", "Potency": "inconclusive: 35.5 µM [inhibitor, single point]"}
{"smiles": "CNC(=O)c1cc2ccc(OC)cc2oc1=O", "activity change, negative = displacement": "inactive: 5.79%"}
